{"source": "PubChem BioAssay AID1508624", "about": "(National Center for Advancing Translational Sciences (NCATS), 2021)", "note": "In all, about 48,000 compounds went through this assay and about 120 (0.25%) were called active. About 4% were inconclusive and are not listed. The call rests on the fitted dose curve; in most records, active means well fitted activation curve with a large enough effect; inconclusive means small, poorly fitted or top-dose-only effect, or another doubt; inactive means no such curve, though single readings can be large or run the other way. The list shows a part of the results.", "data": [{"test": "Primary qHTS for Identification of Small Molecule Activators of Huntingtin-Antisense Promoter Activity; further: nearly all actives have a fitted effect of over 55% in size", "details": "HEK293 HTT-AS promoter firefly luciferase reporter, 24 h; series mostly up to 57.5 µM; activity change, positive = activation: at the top concentration", "procedure,_shortened": "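Firefly luciferase readout (Dual-Glo, 10 min RT) after 24 h, 37 °C compound exposure (final up to 57.5 uM) of HEK293 reporter cells cultured 24 h beforehand; PTC124 at 50 uM final as control inhibitor; activity scaled vehicle 0%, zero RLU -100%.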", "values": [{"smiles": "O=C(CSc1c2c(nc3ccccc13)CCC2)Nc1ccc(F)cc1", "activity change, positive = activation": "inactive: -17.1%"}, {"smiles": "COc1ccc(-n2cnc3cc(C(=O)NC4CCCC4)ccc32)cc1", "activity change, positive = activation": "inactive: -12.3%"}, {"smiles": "CC(C)(C)c1ccc(C(=O)NCC(c2ccco2)S(=O)(=O)c2ccc(F)cc2)cc1", "note": "(stereo not given)", "activity change, positive = activation": "inactive: -41.3%"}, {"smiles": "CN(C)c1ccc(CNC(=O)c2ccc(Cn3c(=O)c4cccn4c4cccnc43)cc2)cc1", "activity change, positive = activation": "inactive: -17%"}, {"smiles": "CCc1ccc2ncc(C(=O)c3ccc(C)c(C)c3)c(N3CCC(C(N)=O)CC3)c2c1", "activity change, positive = activation": "inactive: -8.84%"}, {"smiles": "COc1cc2nc(-c3ccc(N4CCN(C)CC4)cc3)nc(NCCN3CCOCC3)c2cc1OC", "activity change, positive = activation": "inactive: -41.2%"}, {"smiles": "Cc1ccc(Cn2c(CNC(=O)CCc3ccccc3)nc3cccnc32)cc1", "activity change, positive = activation": "inactive: -17.5%"}, {"smiles": "Cc1cccc(N2CCN(Cc3nnc(-c4ccccc4C)o3)CC2C)c1", "note": "(stereo not given)", "activity change, positive = activation": "inactive: 1.31%"}, {"smiles": "COc1ccc(C2=Nc3ccc(F)cc3NC(c3cccc(C(F)(F)F)c3)=N2)cc1", "activity change, positive = activation": "inactive: -5.83%"}, {"smiles": "CCCOc1ccc(C(=O)N(Cc2ccccc2Cl)C2CCS(=O)(=O)C2)cc1", "note": "(stereo not given)", "activity change, positive = activation": "inactive: -1.65%"}, {"smiles": "COC(=O)c1ccccc1NC(=O)c1cnc(Nc2ccc(OC)cc2)c2ccccc12", "activity change, positive = activation": "inactive: -15.7%"}, {"smiles": "CC1(C)CC(=O)c2cc(C#N)c(=O)n(-c3ccc(Cl)cc3)c2C1", "activity change, positive = activation": "inactive: 13.8%"}, {"smiles": "COc1ccc(NC(=O)Cn2cc(C(=O)c3ccccc3)c(=O)c3cc(OC)ccc32)c(OC)c1", "activity change, positive = activation": "inactive: -6.54%"}, {"smiles": "O=C(O)CCC(=O)Nc1sc2c(c1C(=O)Nc1ccccc1)CCCCC2", "activity change, positive = activation": "inactive: -7.09%"}, {"smiles": "CCc1ccc(NC(=O)c2ccc(F)c(S(=O)(=O)N3CCN(c4ccc(OC)cc4)CC3)c2)cc1", "activity change, positive = activation": "inactive: -39.4%"}, {"smiles": "Cc1ccsc1CN(C(=O)c1ccc(OCC(C)C)cc1)C1CCS(=O)(=O)C1", "note": "(stereo not given)", "activity change, positive = activation": "inactive: -24.9%"}, {"smiles": "Cc1ccc2oc(-c3cccc(NC(=O)Cc4ccc(Cl)cc4)c3)nc2c1", "activity change, positive = activation": "inactive: -4.19%"}, {"smiles": "Cc1ccc(Sc2c(C)nn(C(=O)c3ccc(Cl)cc3)c2C)cc1", "activity change, positive = activation": "inactive: -8.63%"}, {"smiles": "Cc1c(C(=O)OC(C)C)sc(NC(=O)C2c3ccccc3Oc3ccccc32)c1C(=O)OC(C)C", "activity change, positive = activation": "inactive: -20.3%"}, {"smiles": "CCOC(=O)c1c(S(=O)(=O)N2CCCC(C(=O)Nc3ccc(C)cn3)C2)c(C)n(C)c1C", "note": "(stereo not given)", "activity change, positive = activation": "inactive: 7.46%"}, {"smiles": "Cc1ccc(-n2c3nc(=O)[nH]c(=O)c-3cc3c(C)nn(-c4ccccc4)c32)cc1C", "activity change, positive = activation": "inactive: -11.1%"}, {"smiles": "COc1ccccc1CNC(=O)CCCN1C(=O)CSc2c1c(C)nn2-c1ccccc1", "activity change, positive = activation": "inactive: 11.7%"}, {"smiles": "COc1ccc(-n2nc(C(=O)N3CCN(c4ccccc4OC)CC3)c3c4ccccc4n(C)c3c2=O)cc1Cl", "activity change, positive = activation": "inactive: -0.786%"}, {"smiles": "CC(=O)N1CCOc2cc(S(=O)(=O)NCc3ccc(F)cc3)c(C)cc21", "activity change, positive = activation": "inactive: 1.69%"}, {"smiles": "O=C(Cn1c(=O)n(Cc2ccccc2)c(=O)c2sc3ccccc3c21)Nc1ccccc1F", "activity change, positive = activation": "inactive: -11.1%"}, {"smiles": "O=C(Nc1ccc2c(c1)CCCN2C(=O)c1cccs1)c1ccccc1", "activity change, positive = activation": "inactive: 0%"}, {"smiles": "O=C(NC1CCCc2ccccc21)c1ccc2c(c1)sc1nc(-c3ccccc3)cn12", "note": "(stereo not given)", "activity change, positive = activation": "inactive: 11.7%"}, {"smiles": "CC(C)C1N=C2c3ccccc3N=C(SCC(=O)NCc3ccc(Cl)cc3)N2C1=O", "note": "(stereo not given)", "activity change, positive = activation": "inactive: -4.83%"}, {"smiles": "CCOc1ccccc1NC(=O)C1CCN(S(=O)(=O)c2cccs2)CC1", "activity change, positive = activation": "inactive: -19.1%"}, {"smiles": "CC(CNC(=O)CCc1cn(Cc2ccccc2Cl)c2ccccc12)c1ccccc1", "note": "(stereo not given)", "activity change, positive = activation": "inactive: -19.6%"}, {"smiles": "COc1cccc(Oc2nc(C)nc3c2oc2ccccc23)c1", "activity change, positive = activation": "inactive: -16.5%"}, {"smiles": "Cc1c(C(=O)NCc2cccc(Cl)c2)sc2nc[nH]c(=O)c12", "activity change, positive = activation": "inactive: -18.9%"}, {"smiles": "CCOc1ccc(NC(=O)Cn2ccn3nc(-c4ccc(OC)c(OC)c4)cc3c2=O)cc1", "activity change, positive = activation": "inactive: 28.2%"}, {"smiles": "Cc1cc(C)cc(NC(=O)Nc2ccc3nc(N4CCN(C)CC4)cc(C)c3c2)c1", "activity change, positive = activation": "inactive: -18.2%"}, {"smiles": "COc1cc(F)c(F)c(Nc2ccc(I)cc2F)c1NS(=O)(=O)C1(C[C@H](O)CO)CC1", "activity change, positive = activation": "inactive: -11.9%"}, {"smiles": "CCCS(=O)(=O)c1nc(S(=O)(=O)c2ccc(C)cc2)c(NCc2ccccc2Cl)s1", "activity change, positive = activation": "inactive: -17.4%"}, {"smiles": "Cc1nc(N2CCCC2)c2c(C(=O)Nc3cccc(Cl)c3)c(C)oc2n1", "activity change, positive = activation": "inactive: -16.6%"}, {"smiles": "COc1ccc(C2=C(C)C(N3CCC(C(=O)Nc4ccc(F)cc4C)CC3)=NS2(=O)=O)cc1", "activity change, positive = activation": "inactive: -11.7%"}, {"smiles": "O=C(Nc1ccc(Cl)c(C(F)(F)F)c1)C(Cc1ccccc1)NS(=O)(=O)c1ccc(Br)s1", "note": "(stereo not given)", "activity change, positive = activation": "inactive: -7.1%"}, {"smiles": "CCOc1ccc(NC(=O)C(=O)NCc2ccco2)cc1", "activity change, positive = activation": "inactive: 15.6%"}, {"smiles": "O=C(NCc1ccccc1)C(=O)NCC(c1cccs1)S(=O)(=O)c1ccccc1", "note": "(stereo not given)", "activity change, positive = activation": "inactive: -27.3%"}, {"smiles": "CC1(C)CC(=O)c2cc(C(=O)Nc3ccccc3Cl)c(=O)n(-c3ccc(Cl)cc3)c2C1", "activity change, positive = activation": "inactive: 0%"}, {"smiles": "COc1ccc2cc3cc(C(=O)NCc4ccccc4OC)oc3nc2c1", "activity change, positive = activation": "inactive: -17.8%"}, {"smiles": "Cc1cccc(NC(=O)CSc2nc3ccccc3nc2N2CCOCC2)c1C", "activity change, positive = activation": "inactive: 6.1%"}, {"smiles": "CC(=O)c1ccc(N2CCN(C(=O)CCCCn3c(=O)[nH]c4ccsc4c3=O)CC2)cc1", "activity change, positive = activation": "inactive: -21.4%"}, {"smiles": "CCOc1ccc(CNS(=O)(=O)c2cc3c(cc2C)NC(=O)CO3)cc1", "activity change, positive = activation": "inactive: -29.7%"}, {"smiles": "CCSc1nnc(NC(=O)c2cc(=O)c3cc(C)c(C)cc3o2)s1", "activity change, positive = activation": "inactive: 5.61%"}, {"smiles": "O=C(Nc1cccc(C(F)(F)F)c1)c1cc(-c2ccc3c(c2)OCCO3)on1", "activity change, positive = activation": "inactive: -8.36%"}, {"smiles": "CCc1cnc2c(c1SCC(=O)c1ccc(Cl)cc1)c(=O)n(C)c(=O)n2C", "activity change, positive = activation": "inactive: -11.6%"}, {"smiles": "COc1ccc(Cn2c(=O)c3cccnc3n(CC(=O)Nc3c(C)cc(C)cc3C)c2=O)cc1", "activity change, positive = activation": "inactive: -2.63%"}, {"smiles": "CCOC(=O)c1c(-c2ccc(OC)cc2)oc2ccc(OCc3ccc(Br)cc3)cc12", "activity change, positive = activation": "inactive: 13.9% [at 11.5 µM, percent change from vehicle, -100% = no light]"}, {"smiles": "O=C(NCCc1ccc(F)cc1)C(=O)NCC(c1ccco1)S(=O)(=O)c1cccs1", "note": "(stereo not given)", "activity change, positive = activation": "inactive: -7.48%"}, {"smiles": "CCc1ccccc1NC(=O)c1ccc2nc(C(C)C)oc2c1", "activity change, positive = activation": "inactive: -23.7%"}, {"smiles": "Cc1ccc(N(CC(=O)Nc2ccc(Br)cc2)S(=O)(=O)c2cccs2)cc1", "activity change, positive = activation": "inactive: -7.17%"}, {"smiles": "COc1ccc(S(=O)(=O)n2nc(C)c(S(=O)(=O)N3CCC(C)CC3)c2C)cc1OC", "activity change, positive = activation": "inactive: -9.77%"}, {"smiles": "O=C(Nc1nnc2n1CCS2)c1ccccc1C(F)(F)F", "activity change, positive = activation": "inactive: -7.4%"}, {"smiles": "CC(C)CCNC(=O)CCC(=O)NNc1nc2ccccc2c2nc(-c3ccccc3)nn12", "activity change, positive = activation": "inactive: -12.9%"}, {"smiles": "COc1cc(OC)cc(C(=O)N2CC(=O)Nc3ccc(Cl)cc3C2c2ccccc2)c1", "note": "(stereo not given)", "activity change, positive = activation": "inactive: 15.1%"}, {"smiles": "COc1ccc(CCNC(=O)c2ccc(Cn3c(=O)c4ccccc4n(Cc4cccc(Cl)c4)c3=O)cc2)cc1OC", "activity change, positive = activation": "inactive: -31.8%"}, {"smiles": "CCOc1ccccc1NC(=O)C(CC)Sc1nc2ccncc2[nH]1", "note": "(stereo not given)", "activity change, positive = activation": "inactive: -22.5%"}]}]}
